# T1: recombinant human CD25 (Homo sapiens, UniProt P01589)
# T1 construct: biotin (biotinylated); purchased Acro Biosystems
# T1 sequence (P01589 22-272): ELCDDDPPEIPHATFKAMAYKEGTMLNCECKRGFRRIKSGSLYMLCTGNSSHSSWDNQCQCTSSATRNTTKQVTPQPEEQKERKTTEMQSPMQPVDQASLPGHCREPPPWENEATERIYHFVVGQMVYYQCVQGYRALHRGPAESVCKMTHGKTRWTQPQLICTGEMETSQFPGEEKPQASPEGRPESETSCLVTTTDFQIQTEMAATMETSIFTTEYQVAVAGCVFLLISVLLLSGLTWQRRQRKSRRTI
# Experiments:
# CD25 expressing cells = assay: Internalization into CD25 expressing cells; format: cell-based, human; conditions: FIG. 1E
# [1] = tested on: human CD25 transgenic mice; assay: In vivo T cell depletion in human CD25 transgenic mice (spleen, flow cytometry); parameters: species or system mouse; conditions: non-fucosylated antibody, 0.1 mg/kg intravenous, 72 hours; FIG. 14A
# Method: At 72 or 168 hours post-dose, the mice were sacrificed and the spleens harvested for flow cytometry analysis of T cell populations.
# recombinant human CD25 = target: T1, recombinant human CD25; assay: Kinetic binding assay (ForteBio Octet RED384) on biotinylated recombinant human CD25; conditions: for ka: association 300 seconds; for kd: disassociation 900 seconds
# Method: Biotinylated recombinant human CD25 was obtained from Acro Biosystems. Biotinylated hCD25 protein was loaded on SAX (High sensitivity streptavidin) tips at 0.8 nM loading density. Affinity measurements were run using a ForteBio Octet RED384 instrument in the kinetic buffer comprising 1×PBS, 0.1% BSA, 0.02% Tween20, pH 7.4. Association measurements were performed for 300 seconds and disassociation measurements were performed for 900 seconds. Each curve was reference subtracted and modeled using a 1:1 global fit. KD results are reported as ka divided by kd.
# [2] = tested on: CD25-expressing L540cy tumor cells; assay: NK cell mediated antibody-dependent cellular cytotoxicity (ADCC); format: cell-based; conditions: human NK cells, L540cy target cells, 4 hours
# Method: NK cell mediated antibody dependent cellular cytotoxicity (ADCC) was examined in both fucosylated and non-fucosylated antibody forms. Human NK cells (158 V/V) were purified from a single human PBMC donor (Astarte) using an EasySep Human NK cell enrichment kit ([…] Technologies) according to the manufacturer's instructions. Antibodies were incubated with human NK cells and CD25-expressing L540cy tumor cells for 4 hours, at which time cell-mediated cytotoxicity was assessed using a CytoTox 96 Non-Radioactive Cytotoxicity Assay (Promega) according to manufacturer's instructions.
# Tregs in human PBMCs = assay: Treg depletion from peripheral blood mononuclear cells; format: cell-based; conditions: 24 hours; FIG. 2B, 12
# Method: Frozen human PBMCs (Astarte) were thawed and plated at a density of 400,000 cells per well. 5-fold dilutions of antibodies were added and incubated at 37° C. for 24 hours. Samples were run by flow cytometry and Tregs were gated by labeling CD3+/CD4+/CD25+ and CD127low/neg. The extent of depletion was determined by comparison to an untreated sample.
Molecule,internalization into CD25 expressing cells (CD25 expressing cells),depletion of splenic CD4 cells [1],"kinetic binding to recombinant human CD25 (binding curves) (recombinant human CD25; FIG. 6A, 6B)",ka (recombinant human CD25),kd (recombinant human CD25),NK-mediated ADCC activity [2],Treg depletion from PBMC (Tregs in human PBMCs)
"SG25Ab-9: fully human anti-CD25 IgG1 antibody; VH SEQ ID NO: 7, VL SEQ ID NO: 8, HC SEQ ID NO: 45, LC SEQ ID NO: 47 (antibody) heavy: QVQLVQSGAEVKKPGESLKISCKGSGYSSTSYWIGWVRQMPGKGLEWMGIIYPGDSDTRYSPSFQGQVTISADKSISTAYLQWSSLKASDTAMYYCARLGSYYAFDIWGRGTMVTVSS[human IgG1 constant region left out here] light: QSALTQPASVSASPGQSITISCTGTSSDVGAYIYVSWYQQLSGKPPKLILYDVSKRPSGISDRFSGSKSGNTASLTISGLQADDEADYYCSSYTRSSTWVFGGGTQLTVLGQPKAAPSVTLFPPSSEELQANKATLVCLISDFYPGAVTVAWKADSSPVKAGVETTTPSKQSNNKYAASSYLSLTPEQWKSHRSYSCQVTHEGSTVEKTVAPTECS",efficiently internalized into CD25 expressing cells,neither antibody depleted splenic CD4 cells,efficient CD25 binding,210000 M⁻¹ s⁻¹,2.7e-05 s⁻¹,robust NK-mediated ADCC activity,readily depleted Tregs
YH99A: SG25Ab-9 variant with point mutation in heavy chain CDR residue (antibody) heavy: QVQLVQSGAEVKKPGESLKISCKGSGYSSTSYWIGWVRQMPGKGLEWMGIIYPGDSDTRYSPSFQGQVTISADKSISTAYLQWSSLKASDTAMYYCARLGSYAAFDIWGRGTMVTVSS[human IgG1 constant region left out here] light: QSALTQPASVSASPGQSITISCTGTSSDVGAYIYVSWYQQLSGKPPKLILYDVSKRPSGISDRFSGSKSGNTASLTISGLQADDEADYYCSSYTRSSTWVFGGGTQLTVLGQPKAAPSVTLFPPSSEELQANKATLVCLISDFYPGAVTVAWKADSSPVKAGVETTTPSKQSNNKYAASSYLSLTPEQWKSHRSYSCQVTHEGSTVEKTVAPTECS,–,–,–,390000 M⁻¹ s⁻¹,0.0085 s⁻¹,–,–
